Results: the RNAGym collection of RNA variant scans (doi:10.7554/elife.90254)
The source gives no read counts; variants with many changes may rest on few reads.

B1: LINE1-full (parent)
chain: UACGUAGGUGGUUUUCCCCUGAUAGUGCUAAGGGGGCCUGGAAGUUUGGACUGGGCAGAGCUCAACACAGCGUGGCAAAGUGGCUGUGGCUAGACUGCCUCUCUGGAUUCCUCGUCACUCAGCAGGGCAUCUCUGAGAGAAAUGCC

Variants of: B1
Test: self-cleavage, relative activity (ratio to wild type); higher = more cleavage; in vitro, sequencing; the parent is a self-cleaving ribozyme

Row | Variant | self-cleavage
1 | UACGUAGGUGGUUUUCCCCUGAUAGUGCUAAGGGGGCCUGGAAGUUAGGACUGGGCAGAGCUCAACACAGCUUGGCAAAGUGGCUGUGGCUAGUCUGCCUCUCUGGAUUCCUCGUCACUCAGCAGGGCAUCUCUGAGAGAAAUGCC | 0.18
2 | UACGUAGGUGGUUUUCCCCUGAUAGUGUUAAGGGGGCCUGGAAGUUUGGACUGGGCUGAGCUCAACGCAGCGUGGCAAAGUGGCUGUGGCUAGACUGCCUCUCUGGAUUCCUAGUCACUCAGCAGGGCAUCUCUGAGAGAAACGCC | 0.08
3 | UACGUAGGUGGUUUUCCCCUGAUAGUGCUAAGGGGGCCUGGAAGUUUGGACUGGGCAGAGCUCAACACAGCGUGGCAAAGUGGCUGUGGCUAGACUGCCUCUCUGGAUUCCUCGUCACUCAGCGGGGCAUCUACGAGAGAAAUGCC | 1.2
4 | UACGUAGGUGGUUUUCCCCUGAUAGUGCUAAGGGGGCCUGGAAGUUUGGGCUGGGCAGAGCUCAACACAGCGUGGCAAAGUGGCCGUGGCUAGACUGCCUCUCUGGAUUCCUCGUCACUCAGCAGGGCAUCUCUGAGAGAAAAGCC | 0
5 | UACGUAGGUGGUUUUCCACUGAUAGUGCUAAGGGGGCCUGGAAGUUUGGACCGGGCAGAGCUCAACACAGCGUGGCAAAGUGGCUGUGGCUAGACUGCCUCUCUGGAUUCCUCGUCACUCAGCAGGGCAUCUCCGAGAGAAGUGCC | 1.18
6 | UACGUAGGAGGGUUUCCCCUGAUAGUGCUAAGGGGGCCUGGAAGUUUGGACUGGGCAGAGCUCAACACAGCGUGGCAAAGUGGCUGUGGCUAGACUGCCUCUCUGGAUUCCUCGUCACUCAGCAGCGCAUCUCUGAGAGAAAUGCC | 0.89
7 | UACGUAGGUGGUUUUCCCCUGAUAGUGCUAAGAGGGCCUGGAAGUUUGGACUGGGCAGAGCUCAGCACAGCGUGGCAAAGUGGCUGUGGCUGGACUGCCUCUCUGGAUUCCUCGUCACUCAGCAGGGCAUCUCUGAGAGAAAUGCC | 0
8 | UACGUAGGUGGUUUUCCCCUGAUAGUGCUAAGGGGGCCUGGAAGUUUGGACUGGGCAGAGCUUAACACAGCGUGGCAAAGUGGCUGUGGCUCGACUGCCUCUCUGGAUUCCUCGUCACCCAGCAGGACAUCUCUGAGAGAAAUGCC | 0.01
9 | UAGGUAGGUGGUUUUCCCCUGAUAGUGCUAAGGGGGCCUGGAAGUUUGGACUGGGCAGAGCUCAACACAGCGUGGCAAAGUGGCUGUGGCUAGACUGCCUCUCUGGAUUCCUCGUCACUCAGCAGGGCAUCUCUGAGUGAGAUGCC | 0.73
10 | UACGUAGGUGGUUUUCCCCUGAUAGUGCUAAGGGGGCCUGGGGGUUUGGACUGGGCAGAGCUCAACACGGCGUGGCAAAGUGGCUGUGGCUAGACUGCCUCUCUGGAUUCCUCGUCACUCAGCAGGGCAUCUCUGAGAGAAAUGCC | 0.77
11 | UACGUAGGUGGUUUCCCCCUGAUAGUGCUAAGGGGGCCUGGAAGUUUGGACUGGGCAGAGCUCAGCACGGCGUGGCAAAGUGGCUGUGGCUAGACUGCCUCUCUGGAUUCCUCGUCACUCAGCAGGGCAUCUCCGAGAGAAAUGCC | 0
12 | UACGUAGGUGGUUUUCCCCUGGUAGUGCUAAGGGGGCCUGGAAGUUUGGACUGGGCAGAGCUCAACACAGCGUGGCAAAGUGGCUGUGGCUAGACUGCCUCUCUGGAUUCCUCGACACUCAGCAGGGCAUCUCGGAGAGAAAUGCC | 1.29
13 | UACGUAGGUGGGUUUCCCCUGAUAGUGCUAAGGGGGCCUGGAAGUUUGGACUGGGCAGAGCCCAACACAGCGUGGCAAAGUGGCUGUGGCUAGACUGCCUCUCUGGAUUCCUCGUCACUCAGCAGGGCCUCUCUGAGAGAAAUGCC | 0.4
14 | UACGUAGGUGGUUUUCCCCUGGUAGUGCUAAGGGGGCCUGGAAGUUUGGACUGGGCAAAGCUCAACACAGCGUGGCAAAGUGGCUGUGGCUAGACUGCCUCUCUGGAUUCCUCGUCACUCAGCAGGGCAUCUCUGAGAGAAGUGCC | 0.03
15 | UACGUAGGUGGUUUUCCCCUGAUAGUGCUAAGGGGGCCUGGAAGUUUGGACUAGGCAGAGCUCAUCACAGCGUGGCAAAGUGGCUGAGGCUAGACUGCCUCUCUGGAUUCCUCGUCACUCAGCAGGGCAUCUCUGAGAGAAAUGCC | 0.03
16 | UACGUAGGUGGUUUUCCCCAGAUAGUGCUAAGGGGGCCCGGAAGUUUGGACUGGGCAGAGCUCAACACAGCGUGGCAAAGUGGCUGUGGCUAGACUGCCUCUCUGGAUUCCUCGUCACUCAGCAGGGCAUCUCUGAGAGACAUGCC | 0.54
17 | UACGUAGGUGGUUUUCCCCUGAUAGUGCUAUGGGGGCCUGGAAGUUUGGACCGGGCAGAGCUCAACACAGCGUGGCUAAGUGGCUGUGGCUAGACUGCCUCUCUGGAUUCCUCGUCACUCAGCAGGGCAUCUCUGAGUGAAAUGCC | 1.26
18 | UACGUAGGUGGUUUUCCCCUGAUAGGGCUAAGGGGGCCUGGAAGUCUGGACUGGGCAGAGCUCAACACAGCGUGGCAAAGUGGCUGUGGCUAGACUGCCUCUCUGGAUUCCUCGUCACUCAGCAGGGCAUCUCUGAGAGGAAUGCC | 1.31
19 | UACGUAGGUGGUUUUCCCCUGAUAGUGCCAAGGGGGCCUGGAAGUUUGGACUGGGCAGAGCUCAGCACAGCGUGGCAAAGUGGCUGUGGCUAGACUGCCACUCUGGAUUCCUCGUCACUCAGCAGGGCAUCUCUGAGAGAAAUGCC | 0.08
20 | UACGUAGAUGGUCUUCCCCUGAUAGUGCUAAGGGUGCCUGGAAGUUUGGACUGGGCAGAGCUCAACACAGCGUGGCAAAGUGGCUGUGGCUAGACUGCCUCUCUGGAUUCCUCGUCACUCAGCAGGGCAUCUCUGAGAGAAAUGCC | 2.2
